# Laboratory results as given in PubChem BioAssay (NCATS).
# The inconclusive results got no clear call from the source; some entries with a clear call stand among them for comparison. Potencies of inconclusive entries are left out as doubtful fits. The source made the active and inactive calls. Calls follow the shape of the dose curve; as a rule, active = well fitted inhibition curve with a large enough effect; inconclusive = small, poorly fitted or top-dose-only effect; inactive = no such curve, though single readings can be large or run the other way.
# Assay: qHTS Screen of the MIPE 4.0 Collection Against Ewings Sarcoma (EW8) (AID 1259255); also: nearly all actives have a fitted effect of over 35% in size;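 as to viability: 100% = DMSO-treated cells and 0% = medium-only wells without cells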
# Conditions: EW8 Ewing sarcoma viability, CellTiter-Glo, 48 h; series mostly up to 45.8 µM; viability: at the top concentration
# Excerpt: There is a large unmet medical need for treatments for Ewing sarcoma, a pediatric sarcoma. We sought to identify compounds that inhibited Ewing sarcoma cells in vitro with the goal to then test promising drugs in two drug combinations in vitro to look for synergistic drug combinations. Promising combinations would then proceed to additional validation, including in vivo testing.
# Using the NCATS developed oncology compound library called the Mechanism of Interrogation Plate (MIPE), four Ewing sarcoma cell lines were evaluated (TC32, TC71, RDES, EW8). Compounds, in a 12-point titration series, were incubated with cells for 48 hours and the read out was cell viability (CellTiter-Glo from Promega). These initial experiments were used to select appropriate concentrations of each single agent for subsequent two-drug matrix combinations such that the concentrations in the matrices would span both activity and non-activity.
# Cells, in the log phase of growth, were seeded in 5 uL of RPMI plus 5% FBS, […] L-glutamine, 100 U/ml penicillin and 100 ug/ml streptomycin into 1536-well solid-bottom white tissue culture treated Greiner Bio One Plates (789173-F) using a MultiDrop Combi (Thermofisher Scientific) dispenser and a small sterile cassette. One column was media alone to be used as a :"no cells" control. The plates were then covered with sterilized stainless steel gasketed lids from Kalypsys. After allowing cells to attach for 4 hours, 23 nL of test compound or control (negative control DMSO and positive control 9.2 uM Bortezomib-final) were added from a 1536-well polypropylene compound source plate to each well using a 1536 head pin tool from Kalypsys. Cells were then incubated for 48 hours at 37C, 95% relative humidity and 5% CO2. After 48 hours, plates were removed from the incubator and 3 uL of CellTiter-Glo (Promega) was added using an Aurora Flying Reagent Dispenser Bioraptor. Plates were incubated at room temperature for 10 minutes prior to reading the luminescence on the Viewlux (PerkinElmer). The relative luciferase units are used to calculate the percent activity using the activity of DMSO in the cells and no cells columns for normalization of no inhibition and full inhibition respectively.
# Potency is read from the fitted curve at half-maximal effect; tags tell the direction and shape of the fitted curve.
SMILES,Potency,viability
COC1(CS(=O)c2ccccc2)CCN(CCc2c[nH]c3ccc(F)cc23)CC1 (stereo not given),"inconclusive [inhibitor, partial curve, poor fit]",–
CC[C@@H]1[C@@H](C)O[C@@](O)([C@@H](C)[C@H](O)[C@H](C)[C@H]2OC(=O)C=CC=C[C@@H](C)[C@@H]([C@@H](C)[C@@H](O)[C@H](C)[C@@]3(O)C[C@H](O[C@H]4C[C@H](O)[C@H](O)[C@H](C)O4)[C@H](CC)[C@@H](C)O3)OC(=O)C=CC=C[C@@H]2C)C[C@H]1O[C@H]1C[C@H](O)[C@H](O)[C@H](C)O1,active: 0.59 µM,–
CO[C@H]1CCC(O[C@H]2C[C@H]([C@]3(C)CC[C@]4(C[C@H](O)[C@@H](C)[C@@H]([C@@H](C)C=C(C)C(=O)[C@H](C)C[C@H](C)C(=O)O)O4)O3)O[C@]3(O[C@@H]([C@H]4O[C@@](O)(CO)[C@H](C)C[C@H]4C)C[C@H]3C)[C@H]2C)O[C@H]1C (stereo not given in full),active: 0.372 µM,–
C=C1C[C@H]2[C@H]3CCC(=O)[C@@]3(C)CC[C@@H]2[C@@]2(C)C=CC(=O)C=C12,"inconclusive [inhibitor, single point]",–
CCNC(=O)CC1N=C(c2ccc(Cl)cc2)c2cc(OC)ccc2-n2c(C)nnc21 (stereo not given),active: 20.9 µM,–
CC(=O)OCC1=C(C(=O)O)N2C(=O)[C@@H](N)[C@@H]2SC1,–,inactive: 118%
C=C[C@@H]1CN2CCC1C[C@H]2[C@H](O)c1ccnc2ccccc12 (stereo not given in full),"inconclusive [inhibitor, partial curve]",–
CC(=O)N(C)c1cccc(-c2ccnc3c(C(=O)c4cccs4)cnn23)c1,"inconclusive [inhibitor, partial curve]",–
c1ccc(CCCN2CCN(CCOC(c3ccccc3)c3ccccc3)CC2)cc1,"inconclusive [inhibitor, single point]",–
CC(NC(C)(C)C)C(=O)c1cccc(Cl)c1 (stereo not given),–,inactive: 105%
COCC1(CO)C(=O)C2CCN1CC2 (stereo not given),active: 2.64 µM,–
C[C@]12CCC(=O)C(O)=C1CC[C@@H]1[C@H]3CCC(=O)[C@@]3(C)CC[C@@H]12,"inconclusive [inhibitor, single point]",–
CCC1(c2ccc(N)cc2)CCC(=O)NC1=O (stereo not given),–,inactive: 109%
N=c1c2c(-c3ccccc3)c(-c3ccccc3)n(Cc3ccccc3)c2ncn1C1CCC(O)CC1 (stereo not given),"inconclusive [inhibitor, full curve]",–
O=C(O)CCCc1ccc(N(CCCl)CCCl)cc1,"inconclusive [inhibitor, single point]",–
COC1=CC(C)=C[C@@H](C)[C@@H](O)[C@@H](C)CC(C)=CC=C[C@H](OC)[C@H]([C@@H](C)[C@@H](O)[C@H](C)[C@@]2(O)C[C@@H](O)[C@H](C)[C@@H](C(C)C)O2)OC1=O,active: 0.0053 µM,–
CCCN1CCO[C@@H]2c3cc(O)ccc3OC[C@@H]21,"inconclusive [inhibitor, partial curve]",–
O=C(Nc1ccncc1)C(=O)c1cn(Cc2ccc(Cl)cc2)c2ccccc12,active: 0.0935 µM,–
CC1=C2C[C@@H]3[C@@H](CC=C4C[C@@H](O)CC[C@@]43C)[C@@H]2CC[C@]12O[C@H]1C[C@H](C)CN[C@H]1[C@H]2C,"inconclusive [inhibitor, partial curve, poor fit]",–
Cn1c(CCCC(=O)O)nc2cc(N(CCCl)CCCl)ccc21,"inconclusive [inhibitor, single point]",–

SMILES,Potency,viability
O=S(=O)(F)Cc1ccccc1,"inconclusive [inhibitor, full curve, poor fit]",–
O=C(N[C@@H](COc1ccc2[nH]c(=O)[nH]c2c1)c1ccccc1)c1cccn(Cc2ccc(F)c(F)c2)c1=O,"inconclusive [inhibitor, single point]",–
O=c1[nH]c2ccccc2n1CCCN1CCC(n2c(=O)[nH]c3cc(Cl)ccc32)CC1,"inconclusive [inhibitor, partial curve, poor fit]",–
CCCC[N+]1(C)[C@H]2CC(OC(=O)[C@H](CO)c3ccccc3)C[C@H]1[C@H]1O[C@H]12 (stereo not given in full),–,inactive: 121%
CNC(=O)N1N=C(c2ccc(N)cc2)c2cc3c(cc2CC1C)OCO3 (stereo not given),"inconclusive [inhibitor, partial curve, poor fit]",–
CNC(=O)c1ccc(N2C(=S)N(c3ccc(C#N)c(C(F)(F)F)c3)C(=O)C23CCC3)cc1F,"inconclusive [inhibitor, single point]",–
CC(C)N[C@@H]1CCn2c(=O)[nH]c3cccc(c32)[C@@H]1O,active: 7.43 µM,–
CCN(CC)C(=O)c1ccc(C2=CC3(CCNCC3)Oc3cccc(O)c32)cc1,–,inactive: 98.6%
COc1ccc(C(=O)c2c(C)n(CCN3CCOCC3)c3cc(I)ccc23)cc1,"inconclusive [inhibitor, single point]",–
CC(=Cc1csc(C)n1)[C@@H]1C[C@H]2O[C@]2(C)CCC[C@H](C)[C@@H](O)[C@@H](C)C(=O)C(C)(C)[C@@H](O)CC(=O)O1,–,inactive: 7.7%
Cc1cc(SCc2sc(-c3ccc(C(F)(F)F)c(F)c3)nc2C)ccc1OCC(=O)O,"inconclusive [inhibitor, single point]",–
CC(C)(O)C(=O)Nc1ccc([N+](=O)[O-])c(C(F)(F)F)c1,"inconclusive [inhibitor, single point]",–
CC(=O)Nc1ccc(OC[C@](C)(O)C(=O)Nc2ccc([N+](=O)[O-])c(C(F)(F)F)c2)cc1,–,inactive: 92.5%
C[C@](O)(CS(=O)(=O)c1ccc(F)cc1)C(=O)Nc1ccc(C#N)c(C(F)(F)F)c1,"inconclusive [inhibitor, partial curve, poor fit]",–
COC(=O)C1=CCCN(C)C1,"inconclusive [inhibitor, partial curve, poor fit]",–
Cc1c(C(=O)Nc2cccc(C(F)(F)F)c2)cc(-c2ccccc2)n1CCCN1CCOCC1,active: 16.6 µM,–
C[C@]12CC[C@H]3[C@@H](CC[C@@]45O[C@H]4C(O)=C(C#N)C[C@]35C)[C@H]1CC[C@H]2O,"inconclusive [inhibitor, single point]",–
CCOC(=O)Nc1ccc(NCc2ccc(F)cc2)cc1N,"inconclusive [inhibitor, single point]",–
Oc1ccc2c3c1O[C@H]1c4[nH]c5c(c4C[C@@]4(O)[C@@H](C2)N(CC2CC2)CC[C@]314)C[C@@]1(O)[C@H]2Cc3ccc(O)c4c3[C@@]1(CCN2CC1CC1)[C@H]5O4,–,inactive: 121%
CC(C)(C)c1cc(C=C(C#N)C#N)cc(Br)c1O,"inconclusive [inhibitor, single point]",–
